The record followed here is article PMC4336329 (PLoS ONE, 2015).

Each structure is given as a SMILES string. Hit rate of the full screen: of about 310,000 compounds, about 14,000 (4.5%) showed an effect of 50% or more. Effects have a minus sign here. Some of the results follow.
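Also: peak tail current of the secondary pulse compared with the same well before compound.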

human ether-à-go-go-related gene (hERG) potassium channel, sequence (Q12809 whole entry, looked up): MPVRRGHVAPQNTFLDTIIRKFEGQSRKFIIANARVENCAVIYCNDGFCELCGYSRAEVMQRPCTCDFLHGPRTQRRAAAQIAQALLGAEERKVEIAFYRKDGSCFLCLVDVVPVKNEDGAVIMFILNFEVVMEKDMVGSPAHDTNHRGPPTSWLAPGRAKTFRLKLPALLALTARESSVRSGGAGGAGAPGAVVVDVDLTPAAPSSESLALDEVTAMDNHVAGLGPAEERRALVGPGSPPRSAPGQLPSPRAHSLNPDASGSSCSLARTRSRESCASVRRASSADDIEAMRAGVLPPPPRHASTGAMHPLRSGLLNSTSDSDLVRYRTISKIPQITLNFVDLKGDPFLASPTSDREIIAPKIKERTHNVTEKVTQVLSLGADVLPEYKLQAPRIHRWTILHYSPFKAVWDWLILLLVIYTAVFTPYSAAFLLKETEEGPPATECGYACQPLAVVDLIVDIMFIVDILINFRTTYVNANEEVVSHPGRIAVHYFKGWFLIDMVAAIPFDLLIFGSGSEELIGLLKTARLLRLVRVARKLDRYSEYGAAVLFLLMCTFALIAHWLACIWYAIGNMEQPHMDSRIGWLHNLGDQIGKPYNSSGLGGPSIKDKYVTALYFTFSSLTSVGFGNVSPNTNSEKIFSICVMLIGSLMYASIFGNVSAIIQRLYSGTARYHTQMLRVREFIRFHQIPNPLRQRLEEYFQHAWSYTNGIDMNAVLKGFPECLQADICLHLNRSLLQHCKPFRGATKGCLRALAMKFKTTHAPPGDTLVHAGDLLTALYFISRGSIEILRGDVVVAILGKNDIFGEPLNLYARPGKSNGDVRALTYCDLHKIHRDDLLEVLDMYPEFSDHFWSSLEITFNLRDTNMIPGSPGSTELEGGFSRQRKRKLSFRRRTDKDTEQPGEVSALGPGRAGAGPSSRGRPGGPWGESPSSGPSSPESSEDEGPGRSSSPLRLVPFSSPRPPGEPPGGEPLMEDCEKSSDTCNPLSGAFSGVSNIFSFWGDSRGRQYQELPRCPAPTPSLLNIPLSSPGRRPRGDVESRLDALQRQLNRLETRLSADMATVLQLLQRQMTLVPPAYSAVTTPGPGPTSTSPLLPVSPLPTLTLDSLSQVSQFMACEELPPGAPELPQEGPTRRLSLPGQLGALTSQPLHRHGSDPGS

The experiment has as its target human ether-à-go-go-related gene (hERG) potassium channel (human, UniProt Q12809). Kind of experiment: primary screen, population patch clamp on CHO cells stably expressing hERG.
For the compound `Cc1ccc(NC(=S)NC(CO)C(O)c2ccc([N+](=O)[O-])cc2)cc1` (stereo not shown), the “hERG current change (%, negative = inhibition) at 10uM” value stood at 7.1%. The value for `CCc1cc(=O)[nH]c(SCc2ccc(C)cc2)n1` was -3.28%. For `Cc1ccc(-c2nc(-c3ccncc3)no2)cc1C`, the “hERG current change (%, negative = inhibition) at 10uM” value turned out to be 9.9%. The value for `CC1=C(C#N)C(c2ccccc2)C2=C(N1)c1ccccc1C2=O` (stereo not shown) was 1.22%; that for `CN(C(=O)CN1C(=O)S/C(=C\c2ccc(Cl)cc2)C1=O)C1CCS(=O)(=O)C1` (stereo not shown) was -11.9%.

Regarding `CCOC(=O)c1nn(-c2ccccc2)cc1O`, the “hERG current change (%, negative = inhibition) at 10uM” value amounted to 13.2%. The result for `Oc1c(C(c2ccco2)N2CCN(C(c3ccccc3)c3ccccc3)CC2)sc2ncnn12` (stereo not shown) reads -1.92%; that for `COc1ccc(S(=O)(=O)N2CCC(C(=O)N3CCC(C(N)=O)CC3)CC2)cc1Cl`, 1.6%. The result for `Cc1ccccc1OCc1nnc(SCC(=O)Nc2c(C)n(C)n(-c3ccccc3)c2=O)n1-c1ccccc1` reads -13.7%. The result for `C/C(Nc1cccc(F)c1)=C(/C#N)C(N)=O` reads 7.81%.

For `Cc1nc2cc(S(=O)(=O)C(F)(F)F)ccc2s1`, the “hERG current change (%, negative = inhibition) at 10uM” value is listed as -4.12%. On to `O=C(NNc1c2ccccc2nc2ccccc12)c1ccc(O)cc1O`, for which the “hERG current change (%, negative = inhibition) at 10uM” value is listed as 10.5%. The value for `CC(OC(=O)C1CCCC1)C(=O)Nc1ncc(Cl)cc1Cl` (stereo not shown) was -2.36%; that for `COC(CNC(=O)CNC(=S)N(Cc1ccccc1)Cc1cccnc1)OC` was 0.417%. For the compound `CCO[C@H]1OC(C(=O)N2CCOCC2)=C[C@@H](c2ccc3c(c2)OCO3)[C@@H]1CCCO`, the “hERG current change (%, negative = inhibition) at 10uM” value is on record as 4.59%.

`CCOc1ccc(S(=O)(=O)Nc2cccc(C(=O)NCC3CCCO3)c2)cc1` (stereo not shown): the “hERG current change (%, negative = inhibition) at 10uM” value is reported as 1.2%. The value for `COC(=O)c1ccccc1NC(=O)CCn1c(=O)oc2ccccc21` was -4.74%; that for `O=C(CN(C(=O)CNC(=O)c1cccs1)c1cccc(F)c1)NC1CCCC1` was -12%; that for `CCOc1ccc(Br)cc1S(=O)(=O)NCCN1CCCC1.Cl` was -5.1%. `CCCCn1c(N)c(N(CCOC)C(=O)c2ccco2)c(=O)[nH]c1=O`: the “hERG current change (%, negative = inhibition) at 10uM” value is 0.12%. Take `O=C(CNC(=O)c1ccc2c(c1)OCO2)Nc1ncccc1O`: the “hERG current change (%, negative = inhibition) at 10uM” value was -2%. The result for `COc1ccccc1CC(=O)c1ccc(OCc2ccccc2)cc1` reads 8.43%; that for `COc1ccc(CN(C(=O)c2oc3ccc(F)cc3c2C)C2CCS(=O)(=O)C2)cc1` (stereo not shown), -25%; that for `Cc1cc(NC(=O)CSc2n[nH]c(CC(C)C)n2)no1`, 0.857%.

For the compound `COc1ccc(/C=C/c2cc(C(F)(F)F)[nH]c(=O)n2)cc1OC`, the “hERG current change (%, negative = inhibition) at 10uM” value is on record as -6.91%.
